# Screen size: about 310,000 compounds; about 2,200 (0.71%) showed an effect of 50% or more. Effects have a minus sign here. The list shows a part of the results.
# Target: human ether-à-go-go-related gene (hERG) potassium channel (human, UniProt Q12809)
# Test: primary screen, population patch clamp on CHO cells stably expressing hERG
# Sequence of human ether-à-go-go-related gene (hERG) potassium channel (Q12809 whole entry, looked up): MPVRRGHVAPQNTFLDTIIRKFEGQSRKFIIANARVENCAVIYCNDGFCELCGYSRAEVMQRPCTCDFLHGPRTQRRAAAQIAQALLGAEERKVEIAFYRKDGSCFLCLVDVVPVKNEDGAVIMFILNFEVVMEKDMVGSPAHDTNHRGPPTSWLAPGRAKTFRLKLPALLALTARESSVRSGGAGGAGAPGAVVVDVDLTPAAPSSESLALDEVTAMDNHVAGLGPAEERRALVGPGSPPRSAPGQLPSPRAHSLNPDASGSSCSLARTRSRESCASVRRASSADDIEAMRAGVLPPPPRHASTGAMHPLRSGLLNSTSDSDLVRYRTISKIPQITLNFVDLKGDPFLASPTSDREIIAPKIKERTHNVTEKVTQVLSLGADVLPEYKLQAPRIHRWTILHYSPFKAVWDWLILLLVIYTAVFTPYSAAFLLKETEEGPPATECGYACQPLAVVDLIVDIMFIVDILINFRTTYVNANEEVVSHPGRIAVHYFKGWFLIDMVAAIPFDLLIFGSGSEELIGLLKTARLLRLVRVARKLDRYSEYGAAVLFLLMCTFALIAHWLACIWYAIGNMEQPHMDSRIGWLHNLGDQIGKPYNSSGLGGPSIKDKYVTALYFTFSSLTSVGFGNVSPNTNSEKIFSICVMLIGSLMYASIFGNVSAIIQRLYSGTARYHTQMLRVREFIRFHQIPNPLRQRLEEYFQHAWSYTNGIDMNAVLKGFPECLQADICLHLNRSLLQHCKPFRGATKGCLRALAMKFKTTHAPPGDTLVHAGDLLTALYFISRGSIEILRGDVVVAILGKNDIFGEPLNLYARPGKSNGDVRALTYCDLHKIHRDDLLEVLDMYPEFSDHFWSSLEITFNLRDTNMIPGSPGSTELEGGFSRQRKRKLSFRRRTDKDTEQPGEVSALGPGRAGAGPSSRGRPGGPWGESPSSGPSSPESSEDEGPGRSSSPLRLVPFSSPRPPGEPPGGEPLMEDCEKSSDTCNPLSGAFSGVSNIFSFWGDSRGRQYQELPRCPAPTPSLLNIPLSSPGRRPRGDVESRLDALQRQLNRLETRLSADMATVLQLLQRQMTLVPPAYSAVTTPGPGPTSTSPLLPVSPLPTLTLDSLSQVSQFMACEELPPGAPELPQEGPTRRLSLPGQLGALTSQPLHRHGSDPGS
row,SMILES,"hERG current change (%, negative = inhibition) at 1uM"
1,CCOC(=O)c1ccc(NC(=O)CN2CCN(C(=O)c3ccco3)CC2)cc1,-0.691%
2,Cl.Fc1ccccc1CNCCC(Cc1ccccc1)c1ccc2c(c1)OCO2 (centres unmarked),10.8%
3,O=C(CSc1nnc(-c2ccncc2)n1Cc1ccco1)c1ccc(Cl)cc1,-13.8%
4,Nn1c(SCc2cccc(C(F)(F)F)c2)nnc1-c1ccco1,7.98%
5,Cc1cc(C(F)F)n2nc(C(=O)Nc3cccc(C(F)(F)F)c3)nc2n1,-7.29%
6,O=C(N/N=C/C=C/c1ccco1)c1cccs1,1.38%
7,COc1cc2ccccc2cc1C(=O)NC(=S)Nc1nnn(C)n1,12.8%
8,Cc1cccc(CSc2nncc(=O)[nH]2)c1,11.9%
9,CN1CCN(CC(=O)NC2CCCCC2)CC1.Cl,16.3%
10,COCCn1c(=S)[nH]c2cc(C(=O)N3CCN(Cc4ccc5c(c4)OCO5)CC3)ccc2c1=O,-3.26%
11,CCN(CC)S(=O)(=O)c1cc(C(=O)OCC(=O)Nc2cccc(Br)c2)ccc1F,16.5%
12,CC(=O)Oc1ccc(N2C(=O)C3C4C=CC(CC4)C3C2=O)cc1[N+](=O)[O-] (centres unmarked),7.49%
13,COC(=O)c1[nH]c2cc(OC)ccc2c1NC(=O)CCN1CCN(c2ccccc2)CC1,-26.2%
14,Cc1cc(C)c(-n2c(SCC(=O)N3CCOCC3)n[nH]c2=O)c(C)c1,19.1%
15,CN1CCN(Cc2cc(=O)oc3ccc(Cl)cc23)CC1,8.31%
16,C=CCNC(=O)N1CCCC(C(=O)c2cccc(Cl)c2)C1 (centres unmarked),9%
17,COc1ccc(C(=O)Nc2ccc(S(=O)(=O)NC(C)C)cc2)cc1,-6.15%
18,CN(C)C(CNC(=O)CCNC(=O)c1ccc(Cl)cc1)c1ccco1 (centres unmarked),0.689%
19,N#Cc1c(/N=C/C=C/c2ccccc2)sc2c1CCCC2,-3.53%
20,O=C(Cn1ccc2ccccc2c1=O)N1CCN(Cc2ccc3c(c2)OCO3)CC1,0.0311%
21,Cc1cc(C(=O)NNC(=O)c2ccc(NC(=O)CC#N)cc2)c(C)o1,16.7%
22,Cc1ccc(C(=O)NC(=C(Cl)Cl)S(=O)(=O)c2ccc(Cl)cc2)cc1,16.5%

row,SMILES,"hERG current change (%, negative = inhibition) at 1uM"
1,COc1nccnc1NS(=O)(=O)c1ccc(NC(=S)NC(=O)c2ccccc2F)cc1,5.05%
2,Cc1ccc(NC(=O)c2ccccc2NC(=O)Cc2ccccc2)cc1,3.03%
3,COc1c(F)cc2[nH]c3c(c2c1F)CCNC3=O,9.79%
4,CCN(Cc1ccncc1)Cc1ccc(OC)cc1OC.O=C(O)C(=O)O,-4.15%
5,CCCCn1c(=O)c(C(=O)c2ccccc2)nc2ccccc21,5.56%
6,CCN(Cc1ccncc1)C(=O)c1cccc(S(=O)(=O)N2CCOCC2)c1,1.08%
7,COc1cc(NC(=O)c2ccc(S(=O)(=O)N(C)C)cc2)cc(OC)c1OC,9.76%
8,Cc1cc(=O)n(CCCc2ccccc2)[nH]1,8.75%
9,Cc1ccc(C)c(CN2CCCN(C(=O)Cn3ncc4c3-c3ccccc3OC4)C2)c1,11.6%
10,CCOc1cc(/C=N/NC(=O)CCn2nc(C)cc2C)ccc1O,14.5%
11,CN1Cc2cc(C(=O)c3ccccc3O)cnc2NC1=O,2.97%
12,Cc1nn(Cc2ccccc2)c(Cl)c1/C=C/C(=O)OC(C(=O)NC(N)=O)C(C)C (centres unmarked),12.7%
13,Cn1nnc(NC(=O)c2ccc(Br)o2)n1,18.2%
14,O=C(Nc1cc(-c2nc3ncccc3o2)ccc1Cl)c1cccs1,-14.4%
15,CC(=O)N1CCc2cc(S(=O)(=O)CCC(=O)N(C)c3cc(C)ccc3C)ccc21,16%
16,Cc1nc(NC(=O)C2CC2)sc1C,0.432%
17,CCCC1=Nc2cc(C(=O)N3CCN(c4ccccn4)CC3)ccc2Sc2ccc(C)cc21,14.2%
18,CCCCCCn1c(COc2ccccc2F)nnc1SCC(=O)c1c(N)n(C)c(=O)n(C)c1=O,8.13%
19,Cc1ccc(NS(=O)(=O)c2ccc(-n3cccn3)cc2)cc1F,15.7%
20,Cn1c(-c2ccncc2)nc2ccccc21,8.49%
21,O=C(Nc1ccccc1N1CCN(C(=O)c2ccc(Cl)cc2)CC1)c1cccc([N+](=O)[O-])c1,-65.2%
22,N/C(=N\OC(=O)C(c1ccccc1)c1ccccc1)c1ccccn1,6.77%
